Experimental data from article PMC12136788.
This is one part of the list.

T1: UNK ZnF1-3 (human, UniProt Q9C0B0 31-174)
T1 sequence: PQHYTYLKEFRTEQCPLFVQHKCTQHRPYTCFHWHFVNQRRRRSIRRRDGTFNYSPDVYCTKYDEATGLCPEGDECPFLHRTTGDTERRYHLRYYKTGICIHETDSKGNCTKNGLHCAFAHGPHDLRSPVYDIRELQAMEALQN

B1: chr5:128440902:128440903:+_ENSG00000066583_ENST00000173527|hu_mus|hu_hu_hu_mus_True|18_78 (ssRNA)
RNA: GGGAGUUCUACAGUCCGACGAUCUUGAACGGUGCUGCCAAGUCCUUUGGGGUAUUGUUCUGUUACAAUAACUGGAAUCCCUAAGAUCCGAGCUCCUUGCAACAGUCUCUGUCCCACGCUAAUAAUAUCCCCAAAGUAUUUGAUCAACAGAGGAUUGAGCAUCA
B2: chr12:48459454:48459455:-_ENSG00000079387_ENST00000551330|hu_mus|FALSE|FALSE (ssRNA)
RNA: GGGAGUUCUACAGUCCGACGAUCUGCUUUCUGCUCUUCAAUCCGGCGCAAUCUUUCCCGAGCUCGAGAGUCAUAAACGCUAGUUAAUUCUUUGAUCCAUAGCUCUGCCUGGAAGAACGUAGGGCUGGAAGCUGGAGUCUGAGACAACAGAGGAUUGAGCAUCA
B3: chr6:38652254:38652255:-_ENSG00000124767_ENST00000373365|hu_hu|hu_hu_hu_mus_False|88_98 (ssRNA)
RNA: GGGAGUUCUACAGUCCGACGAUCCGAGAACUUCAUAAUGGGAAAAUCACAUUUUUGCAGGAGGGUCAGUCCAAGAACCCUCGUAUAAAAAUCCAGGGACUUCUUAGGAUCCUUAAUUCUUAGCAUCGUUUGCUGCAGUAGAAACAACAGAGGAUUGAGCAUCA
B4: 91031602_91031722_1189_3pUTR_ENSMUSG00000070462_ENSMUST00000094216|mouse|control|control (ssRNA)
RNA: GGGAGUUCUACAGUCCGACGAUCCUUGCCCUUGCAGUGAUCACAGAUAGAUACCAGCCUCUUCCGCGGCUGCGAGCUGGCCCCGCCGACGGCGCUCCCAGGAGCCGGAGAAGCCGCCUCGCCAGUGGGCUUCCCGGCGCUGCCCAACAGAGGAUUGAGCAUCA
B5: chr18:67943652:67943653:+_ENSMUSG00000079614_ENSMUST00000025421|mus_hu|motif|central (ssRNA)
RNA: GGGAGUUCUACAGUCCGACGAUCAGUUGUCCUUUUAACCCAGUGGCUCUGUCCUCGCAGUUUAUCAUUUGAUUCUCCGGCGGUUUCUUCCCAUACAGCAGCUGUUCGGUCAAAAGAACAGGAAGCCAAAACCUGCCCAAAUUCCAACAGAGGAUUGAGCAUCA
B6: chr11:115359187:115359188:-_ENSMUSG00000020737_ENSMUST00000021083|mus_hu|FALSE|FALSE (ssRNA)
RNA: GGGAGUUCUACAGUCCGACGAUCACAUCUGGAACCAAAUUAUUUCUUCUUAAAAACACAGUACUAAGUGUCACAAAGCUUUCCCUCCAAUCUACUACUAGAAAACACUCAUGCCAUGGCCCACAGACCCAAGAGUCAAGGACACAACAGAGGAUUGAGCAUCA
B7: chr11:122931392:122931393:-_ENSG00000109971_ENST00000227378|hu_mus|FALSE|FALSE (ssRNA)
RNA: GGGAGUUCUACAGUCCGACGAUCUGUCAGAACCAUGGAGGACACUUCCUCUGGGUAGAAACUUUUUGUCUCCCCUUUGUAUUCCACUUGGACCUUGGGCCUGCCUGCAUCAUUCACCACCAUGAAGGGCCAGUGCUUCAUAUCCAACAGAGGAUUGAGCAUCA
B8: 108469022_108489850_1049_CDS_ENSG00000108018_ENST00000263054|human|control|control (ssRNA)
RNA: GGGAGUUCUACAGUCCGACGAUCGUCAAUGUAGCCUGGAAAAGGCUGAUUCCUGUUGGCCUCUGUACAGUUCUGCAUUCGGCAAGUUAGAUAAUGUGAAUGACCAUCCACAGUUCUGGCCUCAAGAUGCACAAGGUCUGGUUCCAACAGAGGAUUGAGCAUCA
B9: 71623340_71624446_1636_CDS_ENSMUSG00000026192_ENSMUST00000027384|mouse|control|control (ssRNA)
RNA: GGGAGUUCUACAGUCCGACGAUCCUUGUCCACCCAUUCCUUCUUCUCCGCCUCCGUGAGUAACUCAGGAACCUCUUCGAACAGUGCUUCCCAUUUCACCAGGUCUUCGCCCUCACCGAUAGUGCCGGUCACAUACUGAUCAAUCAACAGAGGAUUGAGCAUCA
B10: chr10:88205819:88205820:+_ENSMUSG00000060904_ENSMUST00000116234|mus_hu|motif|central (ssRNA)
RNA: GGGAGUUCUACAGUCCGACGAUCCUUCAUUUCAGGGGAGAAGAAUGGACUGAAUUACUGUCUGCUUUUUAAUGUUUCAACGGACCAUUCCAUUGCCUCAUCAAGGCCGGUGCCUUUGGUUGCUGACGUUUUGAAUAUCUGCCACAACAGAGGAUUGAGCAUCA
B11: chr8:15480645:15480646:+_ENSG00000104723_ENST00000503731|hu_hu|motif|central (ssRNA)
RNA: GGGAGUUCUACAGUCCGACGAUCCAUUCGGAAGAUUGAGCGUCUGGAACUCCAUUCCAUCAGCUGCUCUACUUUUUCAGCGGAAAGAUUCUCCUUUUUCUUCUGUCCUCCCCCGAGCUGGAUGCAGAGCAGCAGCAGCAGGAGCAACAGAGGAUUGAGCAUCA
B12: chr14:90871201:90871202:+_ENSG00000198668_ENST00000553542|hu_hu|motif|central (ssRNA)
RNA: GGGAGUUCUACAGUCCGACGAUCCCAAUACAUGCAGAUUUUGUGUGUGUGGACAGAAGGUACUUUUGACAUUCAGUUUUGCGGUAUAGAAACAGAAUGAAUAAAUGAACUUUUUUCUUUUUUCUUUUUUUUGCAAGAGGUAAGCAACAGAGGAUUGAGCAUCA
B13: chr17:61683753:61683754:+_ENSG00000136463_ENST00000258975|hu_mus|FALSE|FALSE (ssRNA)
RNA: GGGAGUUCUACAGUCCGACGAUCAAAAAAGUGGCGUGCUCCUUCAGCCAUCAUUCCCCCAUUCUUGUUCAGGAUAUAUUUAAUGUCCAGAUGGCACUUGGGACCACUGUUUGAUAACGCCUCAAUGAGCAGAGAAGAGCCUCCCAACAGAGGAUUGAGCAUCA
B14: 82834618_82834738_3251_CDS_ENSG00000038427_ENST00000343200|human|control|control (ssRNA)
RNA: GGGAGUUCUACAGUCCGACGAUCAGAUGGUGAAGUCUGGGUGUCCCUAAAUGCUGCAUCUCCAGAGCCUUCCAUCAUUACCGUUUCUUCUUUUGCUAUGGGAUGAGACACUGUUGAGUAUUCUCUAAAGUCACCACUGAAAUCCAACAGAGGAUUGAGCAUCA
B15: chr4:137866854:137866855:+_ENSMUSG00000028757_ENSMUST00000030538|mus_mus|motif|central (ssRNA)
RNA: GGGAGUUCUACAGUCCGACGAUCGUCAUCACCAUCAAAGGGGACCCACUUGCCAUUGGAGAGCUGUUCUAUGAUGAUGCGGUACUCCACCAAGUCGGUGACAGUGUAGGCAUUGGGUGGAGCCAUCUCGCCCACCCGGUGAUGCAACAGAGGAUUGAGCAUCA
B16: chr1:23636438:23636439:-_ENSG00000125944_ENST00000302271|hu_hu|motif|central (ssRNA)
RNA: GGGAGUUCUACAGUCCGACGAUCUUGUAGGGCAGAUUUCAAAAAGGUGUGAAGUUAUAACAAUUUAAAAACACAGUUAACCGGCUUCUAGGAAUGCAAAACAUACAAUCAUAGGUUAUUUUCAAUACAAGAAAACUUAAAUUUCAACAGAGGAUUGAGCAUCA
B17: chr3:176767854:176767855:-_ENSG00000177565_ENST00000430069|hu_hu|hu_hu_hu_mus_False|28_98 (ssRNA)
RNA: GGGAGUUCUACAGUCCGACGAUCGACAUCCUUGUUACUUGGAACAUCCUGCCCUCCUUCCCGUAUGCAGUGUCUAAGCACGAGCUGCGUAGGGCCACUCGUGCUGUUCUCACUAAGGUUCCAGAUUCUUGCCGUGGAGUCUCCCAACAGAGGAUUGAGCAUCA
B18: 18880459_18880579_3152_CDS_ENSG00000157106_ENST00000446231|human|control|control (ssRNA)
RNA: GGGAGUUCUACAGUCCGACGAUCCAGUGGGGUUCUCAGCUUAGAAAGAACAGUGAAUUGUGCAGCUUCCCAUAUGGCCCACUGCCAAAGGACAGCAUCUGUCUUCAGGAGAUUGCGUGGAAUUGUUGACUGGUCACGCUUAUCCAACAGAGGAUUGAGCAUCA
B19: chr17:55757426:55757427:+_ENSG00000153944_ENST00000284073|hu_hu|FALSE|FALSE (ssRNA)
RNA: GGGAGUUCUACAGUCCGACGAUCAGAAAGCUCACGCCCACCUCCCGCCCUGCACUUCACAACUUUGCUUCAGUGUGUGCUAAAGUUCCACCUGAAAAUUCAUACAGUCUCAGAAUUGGUACCAAAAUAUGGAGAGUCAUAUUACAACAGAGGAUUGAGCAUCA
B20: chr11:98018192:98018193:-_ENSMUSG00000018160_ENSMUST00000107545|mus_hu|FALSE|FALSE (ssRNA)
RNA: GGGAGUUCUACAGUCCGACGAUCUCCUGCACUGCCUGGCGAUUUAGAUCCACCUGUACUGGUAGGUGGGGUAAAAGGUCUGUUAGAAGAACUAUGAGAUGGAGACUUUCCCUCAGUGUCUGCCUUCUUCCGCUUUGGAGGCUUCAACAGAGGAUUGAGCAUCA
B21: chr13:104848895:104848896:-_ENSMUSG00000021710_ENSMUST00000109315|mus_hu|motif|central (ssRNA)
RNA: GGGAGUUCUACAGUCCGACGAUCAGGGAAAUAGUGUGGAUAUUUUAAGGUAAUUUUAUACUUGUCAUCAUCUGUCUUUUCGGAACUGUCAAUGAAAUCAUCAGGAAGAGCACCAAGUUCAGCCUUGGAAAAUACAAGGAAGGUCAACAGAGGAUUGAGCAUCA
B22: chr19:16212804:16212805:+_ENSG00000167460_ENST00000300933|hu_mus|hu_hu_hu_mus_False|18_98 (ssRNA)
RNA: GGGAGUUCUACAGUCCGACGAUCAACAAUUCUGGAGAAGAACAUCAAUGUAACAUGGAACAGCAUUAAAGCUCAGUCAGAAGGCACAUGGGCAACAAUGAUCACCCCAGCAUUCUCCUACGUUGACCUUAAAGACAAUCUGUUCAACAGAGGAUUGAGCAUCA

What follows are binders tested against T1, UNK ZnF1-3 (assay: nsRBNS (natural sequence RNA bind-n-seq); RBNS binding buffer (assumed for nsRBNS): 25 mM Tris pH 7.5, 150 mM KCl, 3 mM MgCl2, 0.01% Triton X-100, 500 ug/ml BSA, 20 U/ml SUPERase-In, 4 C; UNK is unkempt and MSI1 is Musashi-1; names of the RNAs are library labels; protein concentration not given here; high values mean tight binding).

Binder | binding signal [enrichment R]
B1 | 0.509
B2 | 0.953
B3 | 1.07
B4 | 0.846
B5 | 1.42
B6 | 1.56
B7 | 1.05
B8 | 0.794
B9 | 0.754
B10 | 0.715
B11 | 0.669
B12 | 1.23
B13 | 0.767
B14 | 0.876
B15 | 0.962
B16 | 3.09
B17 | 0.6
B18 | 0.759
B19 | 1.62
B20 | 0.747
B21 | 2.59
B22 | 1.49
